Data as given in PMC9911399, “Two distinct binding modes provide the RNA-binding protein RbFox with extraordinary sequence specificity”.
Residue numbers refer to the chain shown, from its start. This is one part of the list.

T1: RBFOX1 RRM RbFoxmut (Fox-RRM*) (Homo sapiens, UniProt Q9NWB1 109-208, R118D;E147R;N151S;E152T)
T1 sequence: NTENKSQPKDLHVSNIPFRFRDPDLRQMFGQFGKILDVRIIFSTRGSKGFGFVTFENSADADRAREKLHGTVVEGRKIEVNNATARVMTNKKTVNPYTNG

B1: AUACGCG (DNA:RNA)
RNA: GGGAGACCGGAAUUCAGAUUGUCCAUACGCGUUAAAUCCCGUCGUAGCCACCA
DNA 1: CAATCTGAATTCCGGTCTCCC
DNA 2: TGGTGGCTACGACGGGATT
B2: UGCCAAG (DNA:RNA)
RNA: B1 RNA with A25U, U26G, A27C, G29A, C30A
DNA 1: CAATCTGAATTCCGGTCTCCC
DNA 2: TGGTGGCTACGACGGGATT
B3: UGCUCAA (DNA:RNA)
RNA: GGGAGACCGGAAUUCAGAUUGUCCUGCUCAAUUAAAUCCCGUCGUAGCCACCA
DNA 1: CAATCTGAATTCCGGTCTCCC
DNA 2: TGGTGGCTACGACGGGATT
B4: GUGGUUU (DNA:RNA)
RNA: B1 RNA with A25G, A27G, C28G, G29U, C30U, G31U
DNA 1: CAATCTGAATTCCGGTCTCCC
DNA 2: TGGTGGCTACGACGGGATT
B5: UUGGAGG (DNA:RNA)
RNA: B1 RNA with A25U, A27G, C28G, G29A, C30G
DNA 1: CAATCTGAATTCCGGTCTCCC
DNA 2: TGGTGGCTACGACGGGATT
B6: CUUGGGA (DNA:RNA)
RNA: B1 RNA with A25C, A27U, C28G, C30G, G31A
DNA 1: CAATCTGAATTCCGGTCTCCC
DNA 2: TGGTGGCTACGACGGGATT
B7: AGCGGGA (DNA:RNA)
RNA: B3 RNA with U25A, U28G, C29G, A30G
DNA 1: CAATCTGAATTCCGGTCTCCC
DNA 2: TGGTGGCTACGACGGGATT
B8: UAUGUGG (DNA:RNA)
RNA: B1 RNA with A25U, U26A, A27U, C28G, G29U, C30G
DNA 1: CAATCTGAATTCCGGTCTCCC
DNA 2: TGGTGGCTACGACGGGATT
B9: AUUGGCG (DNA:RNA)
RNA: B1 RNA with A27U, C28G
DNA 1: CAATCTGAATTCCGGTCTCCC
DNA 2: TGGTGGCTACGACGGGATT
B10: UGUACGU (DNA:RNA)
RNA: B3 RNA with C27U, U28A, A30G, A31U
DNA 1: CAATCTGAATTCCGGTCTCCC
DNA 2: TGGTGGCTACGACGGGATT
B11: GUAAUCU (DNA:RNA)
RNA: B1 RNA with A25G, C28A, G29U, G31U
DNA 1: CAATCTGAATTCCGGTCTCCC
DNA 2: TGGTGGCTACGACGGGATT
B12: ACCUCAA (DNA:RNA)
RNA: B3 RNA with U25A, G26C
DNA 1: CAATCTGAATTCCGGTCTCCC
DNA 2: TGGTGGCTACGACGGGATT
B13: GACCCCG (DNA:RNA)
RNA: B1 RNA with A25G, U26A, A27C, G29C
DNA 1: CAATCTGAATTCCGGTCTCCC
DNA 2: TGGTGGCTACGACGGGATT
B14: UAGGAUG (DNA:RNA)
RNA: B1 RNA with A25U, U26A, A27G, C28G, G29A, C30U
DNA 1: CAATCTGAATTCCGGTCTCCC
DNA 2: TGGTGGCTACGACGGGATT
B15: ACGCAUA (DNA:RNA)
RNA: B1 RNA with U26C, A27G, G29A, C30U, G31A
DNA 1: CAATCTGAATTCCGGTCTCCC
DNA 2: TGGTGGCTACGACGGGATT
B16: UACAGGC (DNA:RNA)
RNA: B3 RNA with G26A, U28A, C29G, A30G, A31C
DNA 1: CAATCTGAATTCCGGTCTCCC
DNA 2: TGGTGGCTACGACGGGATT
B17: GGUCCGG (DNA:RNA)
RNA: B1 RNA with A25G, U26G, A27U, G29C, C30G
DNA 1: CAATCTGAATTCCGGTCTCCC
DNA 2: TGGTGGCTACGACGGGATT
B18: GCACAAA (DNA:RNA)
RNA: B1 RNA with A25G, U26C, G29A, C30A, G31A
DNA 1: CAATCTGAATTCCGGTCTCCC
DNA 2: TGGTGGCTACGACGGGATT
B19: GUCCCCA (DNA:RNA)
RNA: B1 RNA with A25G, A27C, G29C, G31A
DNA 1: CAATCTGAATTCCGGTCTCCC
DNA 2: TGGTGGCTACGACGGGATT
B20: GUAUUGA (DNA:RNA)
RNA: B1 RNA with A25G, C28U, G29U, C30G, G31A
DNA 1: CAATCTGAATTCCGGTCTCCC
DNA 2: TGGTGGCTACGACGGGATT
B21: CUGUUUU (DNA:RNA)
RNA: B1 RNA with A25C, A27G, C28U, G29U, C30U, G31U
DNA 1: CAATCTGAATTCCGGTCTCCC
DNA 2: TGGTGGCTACGACGGGATT
B22: ACUUGCC (DNA:RNA)
RNA: B1 RNA with U26C, A27U, C28U, G31C
DNA 1: CAATCTGAATTCCGGTCTCCC
DNA 2: TGGTGGCTACGACGGGATT
B23: GUAUAAA (DNA:RNA)
RNA: B3 RNA with U25G, G26U, C27A, C29A
DNA 1: CAATCTGAATTCCGGTCTCCC
DNA 2: TGGTGGCTACGACGGGATT
B24: CGGACGG (DNA:RNA)
RNA: B3 RNA with U25C, C27G, U28A, A30G, A31G
DNA 1: CAATCTGAATTCCGGTCTCCC
DNA 2: TGGTGGCTACGACGGGATT
B25: CGCGAUU (DNA:RNA)
RNA: B3 RNA with U25C, U28G, C29A, A30U, A31U
DNA 1: CAATCTGAATTCCGGTCTCCC
DNA 2: TGGTGGCTACGACGGGATT
B26: ACGAUAA (DNA:RNA)
RNA: B3 RNA with U25A, G26C, C27G, U28A, C29U
DNA 1: CAATCTGAATTCCGGTCTCCC
DNA 2: TGGTGGCTACGACGGGATT
B27: GUUCGAG (DNA:RNA)
RNA: B1 RNA with A25G, A27U, C30A
DNA 1: CAATCTGAATTCCGGTCTCCC
DNA 2: TGGTGGCTACGACGGGATT
B28: UUGGCAU (DNA:RNA)
RNA: B3 RNA with G26U, C27G, U28G, A31U
DNA 1: CAATCTGAATTCCGGTCTCCC
DNA 2: TGGTGGCTACGACGGGATT
B29: CCCUGGG (DNA:RNA)
RNA: B1 RNA with A25C, U26C, A27C, C28U, C30G
DNA 1: CAATCTGAATTCCGGTCTCCC
DNA 2: TGGTGGCTACGACGGGATT
B30: GAGCGGU (DNA:RNA)
RNA: B1 RNA with A25G, U26A, A27G, C30G, G31U
DNA 1: CAATCTGAATTCCGGTCTCCC
DNA 2: TGGTGGCTACGACGGGATT
B31: CGGUCGG (DNA:RNA)
RNA: B3 RNA with U25C, C27G, A30G, A31G
DNA 1: CAATCTGAATTCCGGTCTCCC
DNA 2: TGGTGGCTACGACGGGATT

What follows are binders tested against T1, RBFOX1 RRM RbFoxmut (Fox-RRM*) (assay: EMSA; HiTS-Eq, 1 nM pool, 10 min; buffer printed only for the single-RNA assays: 10 mM Tris pH 7.5, 150 mM NaCl, 3.4 mM EDTA, 0.001% NP-40, 30 C). Conditions: tags: His6 N-terminal (pET28a); label: 5' 32P.
Summary of the method: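 Purified wild-type or mutant RbFox RRM at increasing concentrations was equilibrated with 1 nM of 5′-radiolabelled RNA carrying 7 randomized nucleotides for 10 min in 50 µL. Unbound RNA was separated by 8% native PAGE and sequenced. Relative association constants came from read-count changes of each RNA species compared with the control reaction, normalised to the cognate motif.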

Binder | binding signal
B1 | 0.125 KA relative to UGCAUGU
B2 | 0.101 KA relative to UGCAUGU
B3 | 0.0896 KA relative to UGCAUGU
B4 | 0.115 KA relative to UGCAUGU
B5 | 0.0998 KA relative to UGCAUGU
B6 | 0.0775 KA relative to UGCAUGU
B7 | 0.119 KA relative to UGCAUGU
B8 | 0.118 KA relative to UGCAUGU
B9 | 0.146 KA relative to UGCAUGU
B10 | 0.165 KA relative to UGCAUGU
B11 | 0.067 KA relative to UGCAUGU
B12 | 0.0841 KA relative to UGCAUGU
B13 | 0.0671 KA relative to UGCAUGU
B14 | 0.159 KA relative to UGCAUGU
B15 | 0.152 KA relative to UGCAUGU
B16 | 0.079 KA relative to UGCAUGU

Binder | binding signal
B17 | 0.126 KA relative to UGCAUGU
B18 | 0.084 KA relative to UGCAUGU
B19 | 0.0674 KA relative to UGCAUGU
B20 | 0.212 KA relative to UGCAUGU
B21 | 0.0825 KA relative to UGCAUGU
B22 | 0.372 KA relative to UGCAUGU
B23 | 0.15 KA relative to UGCAUGU
B24 | 0.0977 KA relative to UGCAUGU
B25 | 0.0801 KA relative to UGCAUGU
B26 | 0.0818 KA relative to UGCAUGU
B27 | 0.151 KA relative to UGCAUGU
B28 | 0.11 KA relative to UGCAUGU
B29 | 0.0791 KA relative to UGCAUGU
B30 | 0.114 KA relative to UGCAUGU
B31 | 0.096 KA relative to UGCAUGU
